# In all, about 33,000 sequences were measured (“E-score (-0.5 to 0.5)”: median about -0.04, highest 2% from about 0.36 on). The list shows a part of the results.
# Target: T1, Hmlalpha2 (UniProt P0CY09)
# T1 sequence: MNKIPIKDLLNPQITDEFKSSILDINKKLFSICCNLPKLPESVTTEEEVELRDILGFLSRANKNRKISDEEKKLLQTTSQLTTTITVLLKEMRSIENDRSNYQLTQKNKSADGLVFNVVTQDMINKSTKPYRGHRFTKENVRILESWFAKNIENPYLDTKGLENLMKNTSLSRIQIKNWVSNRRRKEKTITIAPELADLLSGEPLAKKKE
# Test: PBM E-score (8-mer binding enrichment) (E-score (-0.5 to 0.5)); higher = stronger / more preferred TF binding; most listed sequences are background and not binding sites
# Settings: protein concentration: 200 nM; construct: GST-full length
# Description: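 Universal 'all 10-mer' protein binding microarrays (Agilent AMADID 015681) probed with GST-tagged S. cerevisiae TFs (full-length or DBD) made by in vitro transcription/translation (PURExpress), about 100-200 nM. Bound TF was detected with fluorescent anti-GST. Each ungapped 8-mer (which stands for itself and its reverse complement) is scored by the PBM enrichment score (E-score), a modified Wilcoxon-Mann-Whitney statistic from -0.5 to +0.5, computed with the Universal PBM Analysis Suite. Scale: above 0.35 generally sequence-specific binding.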
row,Sequence,PBM E-score
1,GCTCGGCA,-0.136
2,CTGAGTAC,-0.0411
3,CCGGCATA,-0.22
4,CGTCTAAA,0.00262
5,CAATCTAC,0.2
6,GGTGCGAC,-0.189
7,CCAGATAC,-0.233
8,GCTCAATA,-0.0756
9,CAGAATAA,0.0622
10,AACCCTAT,0.00499
11,AGTTCAAA,0.0745
12,AGGCCTAG,-0.209
13,GCATTATA,0.0956
14,CTGCAGAC,0.00028
15,ATAAATAG,0.0878
16,AAGTTCGC,-0.0506
17,ACTGCCCC,-0.336
18,TCAGTAGA,-0.138
19,GGAATGAA,0.0613
20,AAGTACAT,0.383
21,TCCTGTCA,-0.0189
22,CTAGGAAG,-0.16
23,CACCCGTG,-0.0312
24,CGTGGTTC,-0.166
25,AATTCCCC,-0.214

row,Sequence,PBM E-score
1,CTTTAGAC,0.116
2,GTCTATTA,0.0186
3,GAACTGTC,-0.114
4,TTATAAAA,0.199
5,ACTCGCAG,-0.176
6,AGGCGATG,-0.128
7,CGAACTCG,-0.0641
8,CCTCAGCA,-0.254
9,GAGAGGAC,-0.129
10,CCGTCGTA,-0.0843
11,CCTTAGAG,-0.462
12,CCTATTCA,-0.319
13,TCTACTCA,0.141
14,AACTCCCC,-0.0491
15,CACTTGGC,-0.0529
16,CCGTAATC,-0.00299
17,AAGGACCC,-0.342
18,AAGACCCT,-0.118
19,GAAAATCC,0.00022
20,ACGAGATA,0.152
21,GTATGGAC,-0.0462
22,GGATATCA,-0.121
23,GCGCACGA,-0.075
24,TCTCCACA,-0.126
25,CAGAGGCC,-0.259

row,Sequence,PBM E-score
1,CACTGCGG,-0.172
2,AACAATGC,0.247
3,ACAGAACG,0.00788
4,AGGTCCGG,-0.045
5,CTCCGCTA,-0.267
6,AAGTCCGC,-0.0902
7,GCTACCGA,-0.172
8,CGCCTGCC,-0.194
9,AGGATCCA,-0.265
10,GCTCTCAC,-0.251
11,CCTCACCC,-0.226
12,AAGCTCAT,-0.159
13,ATATCGTC,0.0518
14,GCAAATCA,0.0387
15,AACGCTAC,-0.0489
16,AACCTCTT,0.193
17,ACGCTGCA,-0.0419
18,CCGAGAAC,-0.068
19,CGCTATCA,-0.21
20,AAATAGCG,0.0875
21,CAACCGTA,-0.00637
22,GGATCGAA,0.0758
23,GACGCACC,-0.211
24,CAAAACTA,0.291
25,AATCCTCA,-0.0398

row,Sequence,PBM E-score
1,AAGCTGCC,-0.255
2,ACCTTGTA,0.402
3,CACGAAAA,0.197
4,GTCGGTGA,-0.299
5,GATCCCTA,-0.0824
6,AGGCCTAA,-0.115
7,ACACCTTG,0.206
8,AACTCCCA,-0.257
9,CCGTTTTC,-0.0908
10,CCCCTGTC,-0.152
11,ATAATATG,0.117
12,GATGACTA,-0.0544
13,ATACTAGC,0.0167
14,GGATCAAC,0.105
15,CAATGTAC,0.217
16,CGGCTAAC,-0.00719
17,GATTTCCC,-0.183
18,AGCGGACT,-0.111
19,AACGTTAA,0.28
20,ATTAGGAA,0.0653
21,GAATGTAC,0.16
22,ATTTACAC,0.479
23,CCCCATTA,0.0001
24,CCGGCCAG,-0.224
25,ATCCGGAC,-0.0342

row,Sequence,PBM E-score
1,ATTGCTGA,-0.00766
2,GATAGAAC,-0.0452
3,AGATCTTC,-0.0516
4,CCCGGGGA,-0.262
5,ATAAAAAT,0.145
6,CTGTAATA,0.286
7,ATTGGTTG,-0.119
8,AAGAACGC,0.18
9,CTCGAGCC,-0.0233
10,ACAGGTCC,0.0173
11,AGCTTGGA,-0.292
12,AATATCAA,0.0209
13,AACGTCCT,-0.0366
14,AATTGCGA,-0.153
15,CGGTAGAC,-0.0181
16,TAACACAA,0.43
17,AGACAAGA,0.081
18,GTACTCTA,0.112
19,GCTGCCGA,-0.273
20,CCGCCTAA,-0.221
21,AGTAGGTA,0.00861
22,ACAACGCT,0.166
23,GAACACTC,0.0939
24,CTTTCGCC,-0.236
25,AAGAGTTC,-0.202

row,Sequence,PBM E-score
1,GAAGATTC,0.0129
2,GATCGAAA,0.0287
3,GAAAGTTC,-0.218
4,ATAAGGTA,-0.176
5,TCCTTCGA,-0.178
6,GTAAAGCA,0.348
7,ATAAATAC,0.258
8,CCGGGCCA,-0.365
9,GACCCGTA,-0.0922
10,CTTGGTTA,-0.0282
11,CTACTAAA,-0.0704
12,CTGAGTGC,-0.148
13,GCGGGCGA,-0.156
14,CGAAACGA,-0.0669
15,AAGTTTTG,0.07
16,CAGTCGGA,-0.152
17,ATAGATGC,-0.151
18,AGATCTAC,0.117
19,TATGATGA,-0.00678
20,GTCAATAA,0.133
21,ACCTTATG,-0.0122
22,CGCTACAA,0.0292
23,CGGAGATC,-0.294
24,CAACTCTA,-0.0987
25,AATGCTAG,-0.0249

row,Sequence,PBM E-score
1,ATGTGGCA,-0.102
2,AGTTCGCC,-0.247
3,CGGACGGC,-0.134
4,AAGCGATA,-0.0673
5,AAGTAATG,0.196
6,CGATTGCG,-0.0285
7,CCTTTACC,-0.204
8,CTGCGCCC,-0.358
9,ACTTGATA,0.122
10,CTCACAGA,-0.0179
11,GTTATAAA,0.309
12,ATGTAGTG,0.332
13,AGTTGCAG,-0.198
14,AAGACTTG,0.0903
15,GTTAGTAA,0.221
16,AGTGGTGA,-0.163
17,AGCCATAG,-0.0793
18,ACAAAACA,0.306
19,CCGGACGC,0.0237
20,CTTCCCCC,-0.349
21,ATGCATAC,0.12
22,ATGAAAGA,-0.0107
23,CATGCCAA,0.138
24,TTACTCAA,0.271
25,AACTCCCG,-0.103

row,Sequence,PBM E-score
1,ACTCGGCC,-0.00218
2,GAGCCATC,-0.241
3,CCCTCCCG,-0.356
4,CCACGAAA,-0.129
5,TGGGCAAA,-0.148
6,CGACTCCG,-0.352
7,ACGCGTTC,0.284
8,AAATAATC,0.187
9,CTAAAATA,-0.0247
10,AAAGCGCA,-0.169
11,AGTCCAAA,-0.0805
12,ATTGTTGC,0.316
13,ACTTCAAT,0.0693
14,CTGGCGTC,-0.104
15,CACCCGAC,-0.0805
16,AAGCGCCA,-0.191
17,CCTTTTCA,-0.122
18,ATTCCCTA,-0.0424
19,AATAGTCT,-0.0416
20,TCGCAGAA,-0.166
21,AGGCCACT,-0.181
22,AACTGCCC,-0.176
23,CCCCAGCA,-0.176
24,GCAGTTGA,-0.157
25,ATGTCGGC,0.0863

row,Sequence,PBM E-score
1,TACCAAGA,0.0705
2,ACAGTTTC,0.073
3,CCAAAACG,0.0431
4,TACACCAA,0.155
5,AAGAGCCC,-0.212
6,CCACAGGA,-0.161
7,TATTATAA,0.176
8,ACGTACAC,0.333
9,AGATGTCA,0.11
10,ACGCGCGT,0.343
11,AAAGGGCT,-0.174
12,AGCCTCGG,-0.276
13,TACTGAAA,0.0807
14,AGACATTG,-0.103
15,ACGGAGTA,-0.0455
16,AACCAGTT,0.158
17,AGCGCCGG,-0.299
18,GGCTAAGA,-0.248
19,CGTACACC,0.0642

# — the supplement of paper PMC3334620
